# In the supplement of paper PMC8728848:
# Some of the results follow.
# B1: ClecSol-Fc (Cryptosporidium parvum) (protein)
# chain: CPEGWISNGEKTRCFKLVTFDRPRTFSHGFKACNDLGGTEVETRRRNGSKETNEYPVTLASVYKLSDEEAIRRTLVEQGDIHKTANGCFVGLRKYAFFRYPPGWYWIDSGSPVSVRDSEINWTSSYNASWLLRFKFPFEKCGFFDIGGLGRRPCWLIDSELSCAVCGTVAYDSGGLNPNKYSELIKQTDEIISKEPKLDLPGYNNLNCTDAWENNLSVGLCQNVSNILDSAWSSYQSSLNFPSINFNWKEDSTNEGGDQVYHNSYLDLPRYKQKKTFYWDQDPGTIPALSDEMKLIGLSAQPTYHPLDRSSSGSFESDSTESGRANEERNDTLEEMIYKQSSDSIEDILVPVTKPIFSDYSSIGRNSGVEEVYSSNVSTISSKGVVFPNTTTSSDNDFTKNNPANSSKHTSTSTTTNTTTTTTRTTTTTTTTTTTTTTTTTTTTETTTTKKSTTATKNTTTT
# Legend:
# Assay in all cases: glycan array binding signal (z-score within array); higher = stronger binding
# Details in all cases: glycan notation: IUPAC condensed, linker removed
# [1] = biological target: Neu5Ac(a2-8)Neu5Ac
# Outline: (§1)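 From the Consortium for Functional Glycomics database, 3228 arrays were curated, keeping only those whose protein sequence was available. Binding is given as a within-array Z-score averaged across arrays sharing a protein sequence and across linkers. Negative Z-scores can be read as non-binding.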
# [2] = biological target: Neu5Ac(a2-8)Neu5Ac(a2-3)Gal(b1-3)GalNAc(b1-4)[Neu5Ac(a2-3)]Gal(b1-4)Glc
# Outline: as §1
# [3] = biological target: Neu5Ac(a2-8)Neu5Ac(a2-3)Gal(b1-3)GalNAc(b1-4)[Neu5Ac(a2-8)Neu5Ac(a2-3)]Gal(b1-4)Glc
# Outline: as §1
# [4] = biological target: Neu5Ac(a2-8)Neu5Ac(a2-3)Gal(b1-4)Glc
# Outline: as §1
# [5] = biological target: Neu5Ac(a2-8)Neu5Ac(a2-3)Gal(b1-4)GlcNAc
# Outline: as §1
# [6] = biological target: Neu5Ac(a2-8)Neu5Ac(a2-3)[Gal(b1-3)GalNAc(b1-4)]Gal(b1-4)Glc
# Outline: as §1
# [7] = biological target: Neu5Ac(a2-8)Neu5Ac(a2-3)[GalNAc(b1-4)]Gal(b1-4)Glc
# Outline: as §1
# [8] = biological target: Neu5Ac(a2-8)Neu5Ac(a2-8)Neu5Ac
# Outline: as §1
# [9] = biological target: Neu5Ac(a2-8)Neu5Ac(a2-8)Neu5Ac(a2-3)Gal(b1-4)Glc
# Outline: as §1
# [10] = biological target: Neu5Ac(a2-8)Neu5Ac(a2-8)Neu5Ac(a2-3)[Gal(b1-3)GalNAc(b1-4)]Gal(b1-4)Glc
# Outline: as §1
# [11] = biological target: Neu5Ac(a2-8)Neu5Ac(a2-8)Neu5Ac(a2-3)[GalNAc(b1-4)]Gal(b1-4)Glc
# Outline: as §1
# [12] = biological target: Neu5Ac(a2-8)Neu5Ac(a2-8)Neu5Ac(a2-8)Neu5Ac(a2-3)[GalNAc(b1-4)]Gal(b1-4)Glc
# Outline: as §1
# [13] = biological target: Neu5Ac(a2-8)Neu5Gc(a2-3)Gal(b1-4)GlcNAc
# Outline: as §1
# [14] = biological target: Neu5Ac(b2-6)Gal(b1-4)GlcNAc
# Outline: as §1
# [15] = biological target: Neu5Ac(b2-6)GalNAc
# Outline: as §1
# [16] = biological target: Neu5Ac9Ac(a2-3)Gal(b1-3)GlcNAc
# Outline: as §1
# [17] = biological target: Neu5Ac9Ac(a2-3)Gal(b1-4)GlcNAc
# Outline: as §1
# [18] = biological target: Neu5Ac9Ac(a2-6)Gal(b1-4)GlcNAc
# Outline: as §1
# [19] = biological target: Neu5Gc(a2-3)Gal(b1-3)GlcNAc
# Outline: as §1
# [20] = biological target: Neu5Gc(a2-3)Gal(b1-3)[Fuc(a1-4)]GlcNAc
# Outline: as §1
# [21] = biological target: Neu5Gc(a2-3)Gal(b1-4)Glc
# Outline: as §1
# [22] = biological target: Neu5Gc(a2-3)Gal(b1-4)GlcNAc
# Outline: as §1
# [23] = biological target: Neu5Gc(a2-3)Gal(b1-4)GlcNAc(b1-3)Gal(b1-4)GlcNAc(b1-2)Man(a1-3)[Neu5Gc(a2-3)Gal(b1-4)GlcNAc(b1-3)Gal(b1-4)GlcNAc(b1-2)Man(a1-6)]Man(b1-4)GlcNAc(b1-4)GlcNAc
# Outline: as §1
# [24] = biological target: Neu5Gc(a2-3)Gal(b1-4)[Fuc(a1-3)]GlcNAc
# Outline: as §1
# [25] = biological target: Neu5Gc(a2-6)Gal(b1-4)GlcNAc
# Outline: as §1
# [26] = biological target: Neu5Gc(a2-6)GalNAc
# Outline: as §1
# [27] = biological target: Neu5Gc(a2-8)Neu5Ac(a2-3)Gal(b1-4)GlcNAc
# Outline: as §1
# [28] = biological target: Neu5Gc(a2-8)Neu5Gc(a2-3)Gal(b1-4)GlcNAc
# Outline: as §1
# [29] = biological target: Neu5Gc(a2-8)Neu5Gc(a2-3)Gal(b1-4)GlcNAc(b1-3)Gal(b1-4)GlcNAc
# Outline: as §1
# [30] = biological target: Neu5Gc(a2-8)Neu5Gc(a2-6)Gal(b1-4)GlcNAc
# Outline: as §1
# [31] = biological target: Neu5Gc(b2-6)Gal(b1-4)GlcNAc
# Outline: as §1
binder,measurement,setting,value
B1,glycan array binding signal (z-score),[1],-0.178
same,glycan array binding signal (z-score),[2],-0.038
same,glycan array binding signal (z-score),[3],-0.207
same,glycan array binding signal (z-score),[4],-0.089
same,glycan array binding signal (z-score),[5],-0.175
same,glycan array binding signal (z-score),[6],-0.229
same,glycan array binding signal (z-score),[7],-0.186
same,glycan array binding signal (z-score),[8],0.518
same,glycan array binding signal (z-score),[9],0.011
same,glycan array binding signal (z-score),[10],0.212
same,glycan array binding signal (z-score),[11],-0.283
same,glycan array binding signal (z-score),[12],-0.223
same,glycan array binding signal (z-score),[13],-0.068
same,glycan array binding signal (z-score),[14],-0.062
same,glycan array binding signal (z-score),[15],-0.003
same,glycan array binding signal (z-score),[16],-0.233
same,glycan array binding signal (z-score),[17],0.02
same,glycan array binding signal (z-score),[18],-0.207
same,glycan array binding signal (z-score),[19],0.394
same,glycan array binding signal (z-score),[20],-0.069
same,glycan array binding signal (z-score),[21],-0.04
same,glycan array binding signal (z-score),[22],-0.119
same,glycan array binding signal (z-score),[23],-0.214
same,glycan array binding signal (z-score),[24],-0.11
same,glycan array binding signal (z-score),[25],-0.12
same,glycan array binding signal (z-score),[26],-0.108
same,glycan array binding signal (z-score),[27],-0.03
same,glycan array binding signal (z-score),[28],-0.109
same,glycan array binding signal (z-score),[29],-0.075
same,glycan array binding signal (z-score),[30],0.219
same,glycan array binding signal (z-score),[31],-0.202
